Experimental data from the supplement of paper PMC4967469.

Columns and labels:
Experiment in all cases: Viability of human cancer cell lines after 72 h of drug (GDSC screen)
Bicalutamide = compound: CC(O)(CS(=O)(=O)c1ccc(F)cc1)C(=O)Nc1ccc(C#N)c(C(F)(F)F)c1 [Bicalutamide]; details: top dose inferred
Experimental: (§1)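 Human cancer cell lines in 384-well plates, medium with 10% serum, drug for 72 h over a 256-fold dose range (nine 2-fold or five 4-fold steps up to the top dose). Adherent lines were fixed and stained with the nucleic acid dye Syto60, suspension lines read with resazurin; signal relative to control wells, capped at 0 and 100%. One two-parameter sigmoid per drug and line, fitted in a mixed model over all curves with the slope shared within a line.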

MP470 = compound: S=C(NCc1ccc2c(c1)OCO2)N1CCN(c2ncnc3c2oc2ccccc23)CC1 [MP470]; details: top dose 20 µM; top dose inferred
Experimental: as §1

KIN001-270 = compound: Cc1ccc(Nc2cc(-c3cccc(N4C(=O)c5ccccc5C4=O)c3)ncn2)cc1NS(C)(=O)=O [KIN001-270]; details: top dose 20 µM; top dose inferred
Experimental: as §1

T0901317 = compound: O=S(=O)(c1ccccc1)N(CC(F)(F)F)c1ccc(C(O)(C(F)(F)F)C(F)(F)F)cc1 [T0901317]; details: top dose 10.24 µM; top dose inferred
Experimental: as §1

Gemcitabine = compound: Nc1ccn([C@@H]2O[C@H](CO)[C@@H](O)C2(F)F)c(=O)n1 [Gemcitabine]; details: top dose 1.024 µM
Experimental: as §1

Nilotinib = compound: Cc1cn(-c2cc(NC(=O)c3ccc(C)c(Nc4nccc(-c5cccnc5)n4)c3)cc(C(F)(F)F)c2)cn1 [Nilotinib]; details: top dose 2 µM
Experimental: as §1

TW-37 = compound: CC(C)c1ccccc1Cc1cc(C(=O)Nc2ccc(S(=O)(=O)c3ccccc3C(C)(C)C)cc2)c(O)c(O)c1O [TW-37]; details: top dose 5 µM
Experimental: as §1

LFM-A13 = compound: C/C(O)=C(\C#N)C(=O)Nc1cc(Br)ccc1Br [LFM-A13]; details: top dose 16 µM; top dose inferred
Experimental: as §1

AUY922 = compound: CCNC(=O)c1noc(-c2cc(C(C)C)c(O)cc2O)c1-c1ccc(CN2CCOCC2)cc1 [AUY922]; details: top dose 0.256 µM; top dose inferred
Experimental: as §1

[1] = top dose 1.024 µM, screen: GDSC drug entry 150
[2] = top dose 10 µM, screen: GDSC drug entry 1502

Row | Cell Line | AUC (Bicalutamide; [1]) | IC50 (Bicalutamide; [1]) | AUC (Bicalutamide; [2]) | IC50 (Bicalutamide; [2]) | AUC (MP470) | IC50 (MP470) | AUC (KIN001-270) | IC50 (KIN001-270) | AUC (T0901317) | IC50 (T0901317) | AUC (Gemcitabine) | IC50 (Gemcitabine) | AUC (Nilotinib) | IC50 (Nilotinib) | AUC (TW-37) | IC50 (TW-37) | AUC (LFM-A13) | IC50 (LFM-A13) | AUC (AUY922) | IC50 (AUY922)
1 | PE/CA-PJ15 (head and neck, adherent) | 0.985 | > 1.02 µM | 0.907 | > 10 µM | 0.945 | > 20 µM | 0.97 | > 20 µM | 0.97 | > 10.2 µM | 0.541 | 0.0837 µM | 0.972 | > 2 µM | 0.519 | 0.353 µM | 0.982 | > 16 µM | 0.786 | 0.12 µM
2 | KMRC-1 (kidney, adherent) | 0.987 | > 1.02 µM |  |  | 0.975 | > 20 µM | 0.904 | > 20 µM | 0.974 | > 10.2 µM | 0.928 | > 1.02 µM | 0.987 | > 2 µM | 0.506 | 0.324 µM | 0.97 | > 16 µM | 0.724 | 0.0725 µM
3 | SW756 (cervix, adherent) | 0.982 | > 1.02 µM | 0.982 | > 10 µM | 0.87 | > 20 µM | 0.966 | > 20 µM | 0.958 | > 10.2 µM | 0.287 | 0.0141 µM | 0.984 | > 2 µM | 0.374 | 0.131 µM | 0.963 | > 16 µM | 0.635 | 0.0406 µM
4 | PANC-03-27 (pancreas, adherent) | 0.986 | > 1.02 µM | 0.976 | > 10 µM | 0.917 | > 20 µM | 0.985 | > 20 µM | 0.989 | > 10.2 µM | 0.164 | 0.00661 µM | 0.98 | > 2 µM | 0.519 | 0.351 µM | 0.97 | > 16 µM | 0.471 | 0.0134 µM
5 | MFE-296 (endometrium, adherent) | 0.985 | > 1.02 µM | 0.983 | > 10 µM | 0.935 | > 20 µM | 0.975 | > 20 µM | 0.976 | > 10.2 µM | 0.346 | 0.0231 µM | 0.962 | > 2 µM | 0.083 | < 0.0195 µM | 0.959 | > 16 µM | 0.543 | 0.0212 µM
6 | NCI-H1568 (lung adenocarcinoma, adherent) | 0.982 | > 1.02 µM | 0.966 | > 10 µM | 0.902 | > 20 µM | 0.964 | > 20 µM | 0.949 | > 10.2 µM | 0.135 | < 0.004 µM | 0.98 | > 2 µM | 0.473 | 0.259 µM | 0.96 | > 16 µM | 0.504 | 0.0164 µM
7 | DBTRG-05MG (glioma, adherent) | 0.983 | > 1.02 µM | 0.982 | > 10 µM | 0.949 | > 20 µM | 0.953 | > 20 µM | 0.976 | > 10.2 µM | 0.474 | 0.0537 µM | 0.954 | > 2 µM | 0.683 | 1.11 µM | 0.97 | > 16 µM | 0.553 | 0.0229 µM
8 | TT (thyroid, adherent) | 0.983 | > 1.02 µM | 0.972 | > 10 µM | 0.897 | > 20 µM | 0.982 | > 20 µM | 0.982 | > 10.2 µM | 0.98 | > 1.02 µM | 0.968 | > 2 µM | 0.629 | 0.817 µM | 0.978 | > 16 µM | 0.965 | > 0.256 µM
9 | OE33 (oesophagus, adherent) | 0.978 | > 1.02 µM | 0.978 | > 10 µM | 0.984 | > 20 µM | 0.956 | > 20 µM | 0.98 | > 10.2 µM | 0.459 | 0.0483 µM | 0.982 | > 2 µM | 0.638 | 0.812 µM | 0.981 | > 16 µM | 0.627 | 0.0385 µM
10 | MOG-G-CCM (glioma, adherent) | 0.983 | > 1.02 µM | 0.965 | > 10 µM | 0.916 | > 20 µM | 0.964 | > 20 µM | 0.93 | > 10.2 µM | 0.788 | 0.532 µM | 0.921 | > 2 µM | 0.589 | 0.57 µM | 0.904 | > 16 µM | 0.56 | 0.0241 µM
11 | CAL-51 (breast, adherent) | 0.99 | > 1.02 µM | 0.976 | > 10 µM | 0.94 | > 20 µM | 0.99 | > 20 µM | 0.971 | > 10.2 µM | 0.697 | 0.209 µM | 0.984 | > 2 µM | 0.482 | 0.28 µM | 0.99 | > 16 µM | 0.364 | 0.00714 µM
12 | JHH-6 (liver, adherent) | 0.987 | > 1.02 µM | 0.969 | > 10 µM | 0.977 | > 20 µM | 0.971 | > 20 µM | 0.955 | > 10.2 µM | 0.61 | 0.129 µM | 0.987 | > 2 µM | 0.604 | 0.604 µM | 0.962 | > 16 µM | 0.625 | 0.0356 µM
13 | HGC-27 (stomach, adherent) | 0.99 | > 1.02 µM | 0.983 | > 10 µM | 0.853 | 12.1 µM | 0.94 | > 20 µM | 0.919 | > 10.2 µM | 0.115 | 0.00496 µM | 0.973 | > 2 µM | 0.416 | 0.191 µM | 0.986 | > 16 µM | 0.431 | 0.0107 µM

The IC50 comes from the fitted curve, where viability falls to half of the control; fits outside the tested doses are given as limits. AUC is the area under the same curve over the 256-fold range up to the top dose, as a fraction: 1 means no effect, lower means more sensitive. For part of these data: An inferred top dose comes from the curve model; the source does not state it. For part of these data: Where an entry number is given, a second screen of the drug exists; the two often differ.
